Experimental data as given in patent US10392428B2, “GLP-1 derivatives and uses thereof” (Novo Nordisk A/S, priority 2014, dated 2019).
For at least one compound, name, drawing or mass did not settle the structure. Non-standard residues stand in square brackets, D forms with d. Residues, ends and D or L forms follow the SMILES beside them. Groups on a side chain read outwards from the residue. *: point of attachment. X1 = O=C(O)CCCCCCCCCCCCCCCCCCC(=O)NC[C@H]1CC[C@H](C(=O)N[C@@H](CCC(=O)NCCOCCOCC(=O)NCCOCCOCC(=O)NCCCC[C@H](NC(=O)COCCOCCNC(=O)COCCOCCNC(=O)CC[C@H](NC(=O)[C@H]2CC[C@H](CNC(=O)CCCCCCCCCCCCCCCCCCC(=O)O)CC2)C(=O)O)C(=O)*)C(=O)O)CC1; Desaminohistidyl = O=C(CCc1c[nH]cn1)*; AEEA = NCCOCCOCC(=O)O; Aib = CC(C)(N)C(=O)O

What was measured:
[1] = system: lean Sprague Dawley male rats; test: Pharmacodynamic study in rats: acute effect on food intake and body weight; format: in vivo; conditions: 48 h vs baseline
[2] = system: obese, diabetic mouse model (db/db mice); test: Pharmacodynamic study in db/db mice: acute effect on blood glucose and body weight; format: in vivo; conditions: 48 h vs basal
Experimental: The purpose of the study is to verify the acute effect of the GLP-1 derivatives on blood glucose (BG) and body weight (BW) in a diabetic setting.
The GLP-1 derivatives of Examples 2-4 and 6-10 were tested in a single-dose study in an obese, diabetic mouse model (db/db mice) as described in the following.
Six db/db mice per compound to be tested (from Taconic, Denmark), fed from birth with the diet NIH31 (NIH 31M Rodent Diet, commercially available from Taconic Farms, Inc., US, see www.taconic.com), were enrolled for the study at the age of approximately 10 weeks. At arrival to the animal facility the mice were given free access to standard chow (e.g. Altromin 1324, Brogaarden, Denmark) and tap water and kept at 24° C. After 1-2 weeks of acclimatisation, the basal blood glucose was assessed twice on two consecutive days (i.e. at 9 am). The mice were allocated to treatment groups based on matching blood glucose levels and body weights. The mice were used in experiments with a duration of 96 hours (Examples 1, 3-4, and 6-10) or up to 240 hours (Examples 2, 12, and 14), and were re-used for up to 2 times. After the last experiment the mice were euthanised.
The GLP-1 derivative was dissolved in the vehicle, to a dosing concentration of 0.5-5 nmol/ml dependent on the respective dose. Animals were dosed once, at the start of the experiment, s.c. with a dose-volume of 6 ml/kg (i.e. 300 μl per 50 g mouse).
On the day of dosing, blood glucose was assessed at time −½ h (8.30 am), the mice were weighed after this. The GLP-1 derivative was dosed at approximately 9 am (time 0). On the day of dosing, blood glucose was assessed at times 1, 2, 4 and 8 h (10 am, 11 am, 1 pm and 5 pm) after dosing.
On the following days, the blood glucose was assessed at time 24 h, 48 h, 72 h, and 96 h (all Example compounds), and for the GLP-1 derivatives of Examples […] blood glucose was further assessed daily up to 240 h after dosing. On each day, the mice were weighed following blood glucose sampling.
The mice were weighed individually on a digital weighing scale.
Samples for the measurement of blood glucose were obtained from the tail tip capillary of conscious mice. Blood, 10 μl, was collected into heparinised capillaries and transferred to 500 μl glucose buffer (EKF system solution, Eppendorf, Germany). The glucose concentration was measured using the glucose oxidase method (glucose analyser Biosen 5040, EKF Diagnostic, GmbH, Germany). The samples were kept at room temperature for up to 1 h until analysis. If analysis had to be postponed, samples were kept at 4° C. for a maximum of 24 h.
The data are presented as percent change in blood glucose or body weight measured at the 48 h time points. For example, the percent change in blood glucose level at 48 h for each individual is calculated as follows: [[(blood glucose level at 48 h)−(basal blood glucose level)]/(basal blood glucose level)]×100%], where basal blood glucose level refers to the level before the administration of any treatment−and vice versa for the body weight change. A negative value refers to a % reduction.
The following results were obtained (averages of all individual determinations corresponding to the respective treatment): […]

SMILES | % change in body weight ([1]; single s.c. dose 100 nmol/kg) | % change in food intake ([1]; single s.c. dose 100 nmol/kg) | % change in blood glucose ([2]; single s.c. dose 30 nmol/kg) | % change in body weight ([2]; single s.c. dose 30 nmol/kg) | % change in body weight ([1]; single s.c. dose 50 nmol/kg) | % change in food intake ([1]; single s.c. dose 50 nmol/kg) | % change in blood glucose ([2]; single s.c. dose 10 nmol/kg) | % change in body weight ([2]; single s.c. dose 10 nmol/kg)
CC[C@H](C)[C@H](NC(=O)[C@H](Cc1ccccc1)NC(=O)[C@H](CCC(=O)O)NC(=O)[C@H](CCCNC(=N)N)NC(=O)[C@H](C)NC(=O)[C@H](C)NC(=O)[C@H](CCC(N)=O)NC(=O)[C@H](CCC(=O)O)NC(=O)[C@H](CCC(=O)O)NC(=O)[C@H](CC(C)C)NC(=O)[C@H](Cc1ccc(O)cc1)NC(=O)[C@H](CO)NC(=O)[C@H](CO)NC(=O)[C@@H](NC(=O)[C@H](CC(=O)O)NC(=O)[C@H](CO)NC(=O)[C@@H](NC(=O)[C@H](Cc1ccccc1)NC(=O)[C@@H](NC(=O)CNC(=O)[C@H](CCC(=O)O)NC(=O)C(C)(C)NC(=O)[C@@H](N)Cc1c[nH]cn1)[C@@H](C)O)[C@@H](C)O)C(C)C)C(=O)N[C@@H](C)C(=O)N[C@@H](Cc1c[nH]c2ccccc12)C(=O)N[C@@H](CC(C)C)C(=O)N[C@H](C(=O)N[C@@H](CCCNC(=N)N)C(=O)NCC(=O)N[C@@H](CCCNC(=N)N)C(=O)N[C@@H](CCCCNC(=O)COCCOCCNC(=O)COCCOCCNC(=O)COCCOCCNC(=O)COCCOCCNC(=O)COCCOCCNC(=O)COCCOCCNC(=O)[C@H](CCCCNC(=O)CC[C@H](NC(=O)[C@H]1CC[C@H](CNC(=O)CCCCCCCCCCCCCCCCCCC(=O)O)CC1)C(=O)O)NC(=O)CC[C@H](NC(=O)[C@H]1CC[C@H](CNC(=O)CCCCCCCCCCCCCCCCCCC(=O)O)CC1)C(=O)O)C(=O)O)C(C)C [Example 12] | −8% | −58% | −46% | −5% |  |  |  | 
CC[C@H](C)[C@H](NC(=O)[C@H](Cc1ccccc1)NC(=O)[C@H](CCC(=O)O)NC(=O)[C@H](CCCNC(=N)N)NC(=O)[C@H](C)NC(=O)[C@H](C)NC(=O)[C@H](CCC(N)=O)NC(=O)[C@H](CCC(=O)O)NC(=O)[C@H](CCC(=O)O)NC(=O)[C@H](CC(C)C)NC(=O)[C@H](Cc1ccc(O)cc1)NC(=O)[C@H](CO)NC(=O)[C@H](CO)NC(=O)[C@@H](NC(=O)[C@H](CC(=O)O)NC(=O)[C@H](CO)NC(=O)[C@@H](NC(=O)[C@H](Cc1ccccc1)NC(=O)[C@@H](NC(=O)CNC(=O)[C@H](CCC(=O)O)NC(=O)C(C)(C)NC(=O)CCc1cnc[nH]1)[C@@H](C)O)[C@@H](C)O)C(C)C)C(=O)N[C@@H](C)C(=O)N[C@@H](Cc1c[nH]c2ccccc12)C(=O)N[C@@H](CC(C)C)C(=O)N[C@H](C(=O)N[C@@H](CCCNC(=N)N)C(=O)NCC(=O)N[C@@H](CCCNC(=N)N)C(=O)NCC(=O)NCC(=O)N[C@@H](CCCCNC(=O)COCCOCCNC(=O)COCCOCCNC(=O)[C@H](CCCCNC(=O)COCCOCCNC(=O)COCCOCCNC(=O)CC[C@H](NC(=O)[C@H]1CC[C@H](CNC(=O)CCCCCCCCCCCCCCCCCCC(=O)O)CC1)C(=O)O)NC(=O)COCCOCCNC(=O)COCCOCCNC(=O)CC[C@H](NC(=O)[C@H]1CC[C@H](CNC(=O)CCCCCCCCCCCCCCCCCCC(=O)O)CC1)C(=O)O)C(=O)O)C(C)C [Example 7, [Imp7,Aib8,Glu22,Arg26,Arg34]-GLP-1-(7-37)-peptidyl-Gly-N{Epsilon}[2-[2-[2-[[2-[2-[2-[[(2S)-2,6-bis[[2-[2-[2-[[2-[2-[2-[[(4S)-4-carboxy-4-[[4-[(19-carboxynonadecanoylamino)methyl]cyclohexanecarbonyl]amino]butanoyl]amino]ethoxy]ethoxy]acetyl]amino]ethoxy]ethoxy]acetyl]amino]hexanoyl]amino]ethoxy]ethoxy]acetyl]amino]ethoxy]ethoxy]acetyl]Lys] (Desaminohistidyl-[Aib]EGTFTSDVSSYLEEQAAREFIAWLVRGRGGK([AEEA-AEEA-X1])-OH; C-terminus assumed) |  |  |  |  | +2% | −16% | −36% | −3%
CC[C@H](C)[C@H](NC(=O)[C@H](Cc1ccccc1)NC(=O)[C@H](CCC(=O)O)NC(=O)[C@H](CCCNC(=N)N)NC(=O)[C@H](C)NC(=O)[C@H](C)NC(=O)[C@H](CCC(N)=O)NC(=O)[C@H](CCC(=O)O)NC(=O)[C@H](CCC(=O)O)NC(=O)[C@H](CC(C)C)NC(=O)[C@H](Cc1ccc(O)cc1)NC(=O)[C@H](CO)NC(=O)[C@H](CO)NC(=O)[C@@H](NC(=O)[C@H](CC(=O)O)NC(=O)[C@H](CO)NC(=O)[C@@H](NC(=O)[C@H](Cc1ccccc1)NC(=O)[C@@H](NC(=O)CNC(=O)[C@H](CCC(=O)O)NC(=O)C(C)(C)NC(=O)[C@@H](N)Cc1c[nH]cn1)[C@@H](C)O)[C@@H](C)O)C(C)C)C(=O)N[C@@H](C)C(=O)N[C@@H](Cc1c[nH]c2ccccc12)C(=O)N[C@@H](CC(C)C)C(=O)N[C@H](C(=O)N[C@@H](CCCNC(=N)N)C(=O)NCC(=O)N[C@@H](CCCNC(=N)N)C(=O)N[C@@H](CCCCNC(=O)COCCOCCNC(=O)COCCOCCNC(=O)[C@H](CCCCNC(=O)COCCOCCNC(=O)COCCOCCNC(=O)COCCOCCNC(=O)COCCOCCNC(=O)CC[C@H](NC(=O)[C@H]1CC[C@H](CNC(=O)CCCCCCCCCCCCCCCCCCC(=O)O)CC1)C(=O)O)NC(=O)COCCOCCNC(=O)COCCOCCNC(=O)COCCOCCNC(=O)COCCOCCNC(=O)CC[C@H](NC(=O)[C@H]1CC[C@H](CNC(=O)CCCCCCCCCCCCCCCCCCC(=O)O)CC1)C(=O)O)C(=O)O)C(C)C [Example 14] | −9% | −63% | −60% | −5% |  |  |  | 
